Reference: article PMC4336329 (PLoS ONE, 2015)
Hit rate of the full screen: of about 310,000 compounds, about 14,000 (4.5%) showed an effect of 50% or more. Effects have a minus sign here. Some of the results follow.

These compounds were tested against human ether-à-go-go-related gene (hERG) potassium channel (human, UniProt Q12809) (assay: primary screen, population patch clamp on CHO cells stably expressing hERG).
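Further: peak tail current of the secondary pulse compared with the same well before compound.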

Sequence of human ether-à-go-go-related gene (hERG) potassium channel (Q12809 whole entry, looked up): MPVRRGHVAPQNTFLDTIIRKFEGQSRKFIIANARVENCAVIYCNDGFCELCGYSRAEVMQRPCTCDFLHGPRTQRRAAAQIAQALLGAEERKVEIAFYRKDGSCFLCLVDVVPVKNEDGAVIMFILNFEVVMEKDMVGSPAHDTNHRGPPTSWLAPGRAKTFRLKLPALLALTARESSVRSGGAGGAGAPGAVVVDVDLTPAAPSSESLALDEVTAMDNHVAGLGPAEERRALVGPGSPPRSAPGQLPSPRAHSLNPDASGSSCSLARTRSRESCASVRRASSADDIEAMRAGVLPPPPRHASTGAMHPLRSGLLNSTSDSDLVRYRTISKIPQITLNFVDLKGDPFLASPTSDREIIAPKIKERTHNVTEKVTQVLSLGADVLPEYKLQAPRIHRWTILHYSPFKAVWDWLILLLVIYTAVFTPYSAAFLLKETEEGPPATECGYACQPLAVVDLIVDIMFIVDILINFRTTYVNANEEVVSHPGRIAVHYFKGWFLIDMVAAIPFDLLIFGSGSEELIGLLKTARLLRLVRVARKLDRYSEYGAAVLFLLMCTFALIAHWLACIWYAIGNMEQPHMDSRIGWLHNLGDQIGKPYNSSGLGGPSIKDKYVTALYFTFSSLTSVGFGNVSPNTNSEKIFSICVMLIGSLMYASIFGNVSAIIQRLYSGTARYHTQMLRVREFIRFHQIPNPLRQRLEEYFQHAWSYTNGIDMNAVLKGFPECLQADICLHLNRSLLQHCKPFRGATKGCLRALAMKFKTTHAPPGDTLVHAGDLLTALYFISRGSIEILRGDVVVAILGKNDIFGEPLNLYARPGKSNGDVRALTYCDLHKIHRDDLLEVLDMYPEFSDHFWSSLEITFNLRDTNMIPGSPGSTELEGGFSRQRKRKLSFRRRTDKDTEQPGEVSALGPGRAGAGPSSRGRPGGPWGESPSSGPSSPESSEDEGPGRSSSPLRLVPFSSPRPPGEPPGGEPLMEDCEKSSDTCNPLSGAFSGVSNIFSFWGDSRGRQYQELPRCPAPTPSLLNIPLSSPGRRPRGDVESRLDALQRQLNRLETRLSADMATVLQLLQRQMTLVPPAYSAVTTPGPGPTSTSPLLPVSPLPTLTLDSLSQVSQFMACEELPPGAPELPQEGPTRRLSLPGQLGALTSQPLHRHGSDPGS

Compound	hERG current change (%, negative = inhibition) at 10uM
COc1ccc(/C=C/C(=O)Oc2ccc(/C=N\NC(=O)c3ccc(F)cc3)cc2)cc1	-2.56%
C=CCOC(=O)C1=C[C@@H](c2coc3ccccc3c2=O)C[C@@H](OCCCCO)O1	-22.1%
CCCC(=O)NC(Nc1ccc(S(=O)(=O)Nc2ncccn2)cc1)(C(=O)OCC)C(F)(F)F (stereo not drawn)	26.6%
CCOC(=O)C1CCN(CCC(=O)Nc2cccc(Cl)c2)CC1	-67.1%
O=C(C1CC1)N1CCC(c2nc(-c3ccc(S(=O)(=O)NCC4CCCO4)cc3)no2)CC1 (stereo not drawn)	0.288%
Cc1csc(NC(=O)C2CCC(C)(C(=O)O)C2(C)C)n1 (stereo not drawn)	9.47%
Cc1nc(SCC(=O)N2CC(=O)Nc3ccccc32)c2c(C)c(C)sc2n1	-5.65%
O=C(CCN1C(=O)C2CC=CCC2C1=O)Nc1cc(C(F)(F)F)ccc1N1CCCC1 (stereo not drawn)	-6.9%
O=c1c2ccccc2ncn1-c1cccc([N+](=O)[O-])c1	7.72%
O=C(CSc1ccccn1)Nc1ccc2c(c1)OCCO2	8.07%
CCN(CC)CCCNC(=O)c1sc2nc(-c3ccc(F)cc3)cn2c1C	-71.1%
N#CCCN(Cc1cccnc1)C(=O)c1ccc(S(=O)(=O)N2CCOCC2)cc1	-4.39%
Cc1ccc(CNC(=O)Cn2cccc2C(=O)c2ccccc2C)cc1	-7.1%
O=C(NC1CCCCCC1)C(=S)N1CCOCC1	6.85%
N/C(CS(=O)(=O)c1ccc(F)cc1)=N\O	11.8%
Cn1nc(C(F)(F)F)c(/C=N/OC(=O)c2ccccc2)c1SCc1ccc(Cl)cc1	6.34%
Cc1ccc2c(cnn2C(=O)CCCC(=O)NCc2ccc(F)cc2)c1	-9.47%
O=C(c1snnc1-c1ccccc1)N1CCOCC1	4.29%
Cc1ccc2c(C)nc(Nc3nc(CSc4nnc(C)s4)cc(=O)[nH]3)nc2c1	-1.01%
CCOC(=O)Cc1csc(N)n1	9.91%
O=C(CCCN1C(=O)c2ccccc2C1=O)NCCCN1CCOCC1	20.3%
O=C(NCCOc1ccccc1)c1ccccc1[N+](=O)[O-]	41.5%
Cc1ccc(-c2nn(-c3cccc(F)c3)cc2CNCc2cccnc2)o1	-51.6%

Compound	hERG current change (%, negative = inhibition) at 10uM
COc1ccc(NC(=O)C2C3CCC(O3)C2C(=O)O)cc1OC (stereo not drawn)	17.9%
CC(Oc1ccc(Cl)cc1Cl)C(=O)Nc1cccc(O)c1 (stereo not drawn)	-10.2%
c1ccc2c(c1)nc(Nc1ccc3c(c1)OCO3)c1nnnn12	8.5%
Cc1ccc(-c2c(C#N)c(N)nc3c2CCCCC3)o1	-5.84%
COc1ccc2c(c1OC)C(=O)OC2Nc1nc(-c2ccccc2)cs1 (stereo not drawn)	8.12%
CCn1c(SCc2nc(CC(=O)Nc3ccccc3OC)no2)nnc1-c1cccs1	-49.8%
Cc1ccc(S(=O)(=O)/N=C(\N)c2ccc(Cl)cc2)cc1	-2.48%
O=C1CCCc2c1cnc1ncnn21	6.13%
O=C(NCCc1ccc(Cl)cc1)C1CCN(S(=O)(=O)N2CCC3(CC2)OCCO3)CC1	-8.62%
CCN1C(=O)c2cccc3c(S(=O)(=O)Nc4ccccn4)ccc1c23	-3.39%
CC(=O)CSc1ncnc2sc3c(c12)CCC(C)C3 (stereo not drawn)	4.82%
Cc1cccc(C)c1OC(=O)C(c1ccccc1)c1ccccc1	6.14%
C=C(C)COc1ccc(-c2[nH]ncc2Oc2ccc(OC)cc2)c(O)c1	-14.9%
CN1C(=O)C(Cc2cnc[nH]2)NC1=S (stereo not drawn)	30.8%
CCOC(=O)C(=CNc1ccc(C)cc1C)C(=O)OCC	6.25%
O=C(NC1CCCCC1)C(c1ccccc1)N1CCOCC1 (stereo not drawn)	9.63%
CCCC(=O)N(c1ccc(F)cc1)C1C=CS(=O)(=O)C1 (stereo not drawn)	11.7%
CN/C=C(/Cl)P(=O)(OC(C)C)OC(C)C	11.1%
CN1CCCN(CC(O)COCc2cccs2)CC1 (stereo not drawn)	-2.94%
C=CCOc1ccc(/C=N/NC(=O)C(=O)N2CCCCCC2)cc1OC	16.5%
Cc1cccc(OCC(=O)NN2C(=O)C3C4C=CC(O4)C3C2=O)c1 (stereo not drawn)	13.9%
c1ccc2oc(-c3[nH]ncc3CN3CCC(N4CCSCC4)CC3)cc2c1	-61.9%
COc1ccc(CCN2CC(C(=O)NCCc3cnn(C)c3)CCC2=O)cc1 (stereo not drawn)	17.9%

Compound	hERG current change (%, negative = inhibition) at 10uM
Cc1ccc(C)c(S(=O)(=O)NNC(=O)c2sc(NS(=O)(=O)c3ccccc3)nc2C)c1	14.2%
O=[N+]([O-])c1ccc(N/N=C2\CC3CC=CC23)cc1 (stereo not drawn)	-25.4%
O=C(O)CCC(=O)Nc1nnc(C(F)(F)F)s1	-2.04%
C[C@H](NC(=O)c1nc[nH]c1C(=O)NCCCCCNC(=O)OC(C)(C)C)C(=O)OCc1ccccc1	5.49%
CCOc1ccccc1N1CCN(C(=O)c2ccccc2SCC(=O)N2CCCC2)CC1	10.6%
CC(C)C(C)N(Cc1cccc(C(=O)O)c1)C(=O)c1ccc2ccccc2n1 (stereo not drawn)	20.6%
COC(=O)c1cc(COC(=O)COc2ccc(C)c(C)c2)oc1C	20.7%
COc1ccc(C(=O)N2CCN(CC(=O)N3CCOCC3)CC2)cc1	-1.69%
CC(=O)CSc1cc(C)nc2c(-c3ccccc3)c(C)nn12	4.3%
CCOc1ccc(N2CC(C(=O)NCC(=O)Nc3ccc(F)c(F)c3F)CC2=O)cc1 (stereo not drawn)	-17.7%
CCCCC(=O)N/N=C/c1c(O)n(CCc2ccccc2)c(=O)[nH]c1=O	18.3%
O=C(NCc1ccccc1)c1ccc2c(=O)n3c(nc2c1)CCCCC3	-22%
CCn1c(=O)c([N+](=O)[O-])c(NCC2CCCO2)c2ccccc21 (stereo not drawn)	-16.6%
CC1(C)Cc2ccccc2-c2nnc(SCC(=O)Nc3ccc4c(c3)OCO4)n21	-63.2%
COc1ccc2cc(CN(CC3CCCO3)C(=S)NCc3ccco3)c(=O)[nH]c2c1 (stereo not drawn)	-8.85%
COc1ccc(NS(=O)(=O)c2cc(C(=O)N3CCC3)ccc2C)cc1	-13%
C/C(=N\N1CCN(C2c3ccccc3-c3ccccc32)CC1)c1ccco1	13.7%
CCOC(=O)N1CCN(CC(O)COC2CC(C)CC(C)(C)C2)CC1.Cl (stereo not drawn)	-1.94%
Nc1nnc(SCC(=O)Nc2ccccc2)s1	13.6%
COc1ccc(C2(C)NC(=O)N(CC(=O)NCCC3=CCCCC3)C2=O)cc1OC (stereo not drawn)	13.1%
CCOC(=O)N1CCC(N2CC34C=CC(O3)C(C(=O)O)C4C2=O)CC1 (stereo not drawn)	7.72%
Fc1cccc(CN2CCN(Cc3nc(-c4cnccn4)no3)CC2)c1	6.88%
CCOc1ccc(N/C(N)=N/c2nc(CSc3nnc(C)s3)cc(=O)[nH]2)cc1	12.5%

Compound	hERG current change (%, negative = inhibition) at 10uM
CCn1cc(C(=O)N[C@H](C)c2ccccc2)c(=O)c2cc(F)c(N3CCN(C)CC3)cc21	-5.83%
Cc1cc(=S)n(-c2ccccc2)n1C	19.1%
Cc1ccc(S(=O)(=O)NC2CCOC(C)(C)C2)cc1 (stereo not drawn)	8.84%
CC(=O)Oc1cccc(N2C(=O)C3CC=CCC3C2=O)c1 (stereo not drawn)	7.23%
COCCN(C(=O)COC(=O)CC1CCCCC1)c1c(N)n(Cc2ccccc2)c(=O)[nH]c1=O	10.8%
CSc1nc2ccc3nc(NC(=O)c4ccccc4)sc3c2s1	11.1%
CN(C)Cc1ccccc1COc1ccccc1.O=C(O)/C=C\C(=O)O	0.278%
CC(=O)NCc1ccc(C(=O)CCl)cc1	7.59%
COCCN(C(=O)c1snc(C(N)=O)c1N)C(C(=O)NC1CCCCC1)c1cc(OC)c(OC)c(OC)c1 (stereo not drawn)	-9.61%
CC(C)c1ccc(-c2cc(C(=O)N3N=C(C(F)F)CC3(O)C(F)F)c3ccccc3n2)cc1 (stereo not drawn)	19.9%
CCC(C(=O)NCCCN1CCN(C)CC1)n1nc(C)c2sc3ccccc3c2c1=O (stereo not drawn)	0.429%
CC1Sc2ccc(S(=O)(=O)CCC(=O)NCc3ccccc3)cc2NC1=O (stereo not drawn)	17.2%
O=C(NCc1ccc(F)cc1)NC(=O)c1ccc(Cl)cc1	8.5%
COc1ccc(Nc2ncnc3sccc23)cc1	15.1%
Cc1cc(C)c(C(=O)CN2C(=O)NC3(CCCCC3)C2=O)cc1C	30.3%
Cc1ccc(NC2=NCC(=O)N2Cc2ccc3c(c2)OCO3)c(C)c1	-1.91%
Cc1oc(-c2ccccc2F)nc1CN1CCC(C(=O)NCc2cccs2)CC1	-63.7%
Nc1nc(Nc2ccc(Cl)cc2Cl)nc(C(F)(F)F)n1	2.43%
COc1ccc(NC(=O)Cc2nnc(SCC(=O)Nc3nccs3)n2C)cc1	6.78%
COc1ccc(CCNCC(=O)Nc2ccc(C)c(S(=O)(=O)N(C)C)c2)cc1OC	-21.1%
CCCCOc1ccc(C(=O)N2CCN(CC(=O)Nc3ccc(C)cc3)CC2)cc1OC	-47.1%
